This sample is rich in variants without activity.
B1: TPR 5TU (parent)
chain: GGAUCUUCUCGAUCUAACAAAAAAGACAAAUCUGCCACAAAGCUUGAGAGCAUCUUCGGAUGCAGAGGCGGCAGCCUUCGGUGGCGCGAUAGCGCCAACGUUCUCAACUAUGACACGCAAAACGCGUGCUCCGUUGAAUGGAGUUUAUCAUG

Variants of: B1
Assay: polymerase ribozyme fitness, log enrichment relative to wild type (log ratio); higher = more active; in vitro selection for triplet polymerase activity
Summary of the method: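 Fitness measures genotype enrichment against wild-type enrichment on a logarithmic scale, with inverse-variance-weighted averaging of replicates. The logarithm is base 2, and genotypes were kept only with ≥10 input reads and ≥1 read per output in Illumina sequencing. The sequenced libraries came from one triplicate in vitro selection round, including frozen incubation at −7 °C, of PCR-built, transcribed mutant libraries of each subunit of a heterodimeric triplet polymerase ribozyme.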

Variant | polymerase ribozyme fitness (log ratio)
A37C C57G C69U C96U U111C G136U A137C | ≤ -4.2
A37C C57G C79G G83U G100C A138U G140U | ≤ -4.2
A37C C63G C99A U111C C114U A119U | ≤ -4.2
A37C C63U A64U C76A A91U C93U C95G | ≤ -4.2
A37C C69A U101A C116U | ≤ -4.2
A37C C72U C99U C103U A107G | ≤ -4.2
A37C C75G G80A C149G | ≤ -4.2
A37C C76U C87G A122U U139C | ≤ -4.2
A37C C87G | ≤ -4.2
A37C C87G C118U A121C | ≤ -4.2
A37C C87U | -0.492
A37C C87U G100C | ≤ -4.2
A37C C93A | -2.8
A37C C93A U151G | ≤ -4.2
A37C C95A A97C A121U | -2.71
A37C C95U C103G C118G | ≤ -4.2
A37C C95U G100U C108U A138G | ≤ -4.2
A37C C96U G100C U102C C118G C131G | ≤ -4.2
A37C C103G | -3.6
A37C C105U | -0.652
A37C C123U C125A A142U U148A | ≤ -4.2

Variant | polymerase ribozyme fitness (log ratio)
A37C G42C G59C A73U G74C G88A A137C | ≤ -4.2
A37C G42C U82G C85U A115C C123G A150C | ≤ -4.2
A37C G42U G80C C85U | ≤ -4.2
A37C G46A G83A A142U | ≤ -4.2
A37C G48C C72U G92C | ≤ -4.2
A37C G50A A66G C95G U127A | ≤ -4.2
A37C G50U A52C U90C G94C C116U | ≤ -4.2
A37C G58A C75A C99U | ≤ -4.2
A37C G58A C87A U101G G124C A150U | ≤ -4.2
A37C G58A G68U C99U A106C A142G A147C | ≤ -4.2
A37C G67A C93A C118U A122U G141A | ≤ -4.2
A37C G68C C96A G126A | ≤ -4.2
A37C G70A C76A G84C | ≤ -4.2
A37C G70C C87A C125U | ≤ -4.2
A37C G80A G86A | -2.42
A37C G83A A122U C131U U134C | 0.318
A37C G83U | -0.441
A37C G84A C87G U148G | ≤ -4.2
A37C G84U C95G C114A C118G U139G G143C | ≤ -4.2
A37C G86U C87U C108U A113G G117A | ≤ -4.2
A37C G92C G124C | -2.65

Variant | polymerase ribozyme fitness (log ratio)
A37C G92U A97G U111C | ≤ -4.2
A37C G94U A98U | -1.16
A37C U44A G70A C79G U134G U135A U151C | ≤ -4.2
A37C U45A A106G A147G | ≤ -4.2
A37C U45A C79U A97U U144A | ≤ -4.2
A37C U53A A91C | ≤ -4.2
A37C U53A C54U G128A G136A | ≤ -4.2
A37C U53G U56G C118A U135A G141A | ≤ -4.2
A37C U55A | 0.0873
A37C U55A G88C G94A U139G G141A G143C | ≤ -4.2
A37C U55A G133C U144A | -2.6
A37C U55G U56G G88A C108G U109C | ≤ -4.2
A37C U56A A89C C116G A150C | ≤ -4.2
A37C U61A G68U C96U A98G | ≤ -4.2
A37C U61A G80C A107C U146C | ≤ -4.2
A37C U61A U90C A91U | ≤ -4.2
A37C U78G | ≤ -4.2
A37G | -1.24
A37G A41C U53C C85U U104C G128C C149G | ≤ -4.2
A37G A41G C79A G92U C95U C123U | ≤ -4.2
A37G A41U A60C U111G | ≤ -4.2

Variant | polymerase ribozyme fitness (log ratio)
A37G A49C U55A G71C G141C A147C | ≤ -4.2
A37G A49U A73G | ≤ -4.2
A37G A52G G84U G86U | ≤ -4.2
A37G A60G G71A C79G G81U C95G C125A G141C U145A U148G | ≤ -4.2
A37G A60G U77G C105A | ≤ -4.2
A37G A64C U77C C85U G128U G136U G141C | ≤ -4.2
A37G A73U G94A A97C G124A | ≤ -4.2
A37G C43U G74C U144A | ≤ -4.2
A37G C51A A97U | ≤ -4.2
A37G C51U | -2.54
A37G C57A A64C A73G C93U C125A | ≤ -4.2
A37G C57U A121C G140C | ≤ -4.2
A37G C57U C85G G92C | ≤ -4.2
A37G C63U G68U U77C U82A A89C C125A | ≤ -4.2
A37G C69G | -0.726
A37G C69U U77C U144G C149A | ≤ -4.2
A37G C75G U90G G94C A97U C99G C103U A121U U148A | ≤ -4.2
A37G C76A G94U U109G | ≤ -4.2
A37G C85A C116A C118G U139A U144G | ≤ -4.2
A37G C85A U145C U151G | ≤ -4.2

Source: the RNAGym collection of RNA variant scans (doi:10.1073/pnas.2313332121)
